The campaign covered roughly 310,000 compounds. About 2,200 (0.71%) showed an effect of 50% or more. Effects have a minus sign here. The list shows a part of the results.
molecular target: human ether-à-go-go-related gene (hERG) potassium channel (human, UniProt Q12809); assay: primary screen, population patch clamp on CHO cells stably expressing hERG
Sequence (Q12809 whole entry, looked up): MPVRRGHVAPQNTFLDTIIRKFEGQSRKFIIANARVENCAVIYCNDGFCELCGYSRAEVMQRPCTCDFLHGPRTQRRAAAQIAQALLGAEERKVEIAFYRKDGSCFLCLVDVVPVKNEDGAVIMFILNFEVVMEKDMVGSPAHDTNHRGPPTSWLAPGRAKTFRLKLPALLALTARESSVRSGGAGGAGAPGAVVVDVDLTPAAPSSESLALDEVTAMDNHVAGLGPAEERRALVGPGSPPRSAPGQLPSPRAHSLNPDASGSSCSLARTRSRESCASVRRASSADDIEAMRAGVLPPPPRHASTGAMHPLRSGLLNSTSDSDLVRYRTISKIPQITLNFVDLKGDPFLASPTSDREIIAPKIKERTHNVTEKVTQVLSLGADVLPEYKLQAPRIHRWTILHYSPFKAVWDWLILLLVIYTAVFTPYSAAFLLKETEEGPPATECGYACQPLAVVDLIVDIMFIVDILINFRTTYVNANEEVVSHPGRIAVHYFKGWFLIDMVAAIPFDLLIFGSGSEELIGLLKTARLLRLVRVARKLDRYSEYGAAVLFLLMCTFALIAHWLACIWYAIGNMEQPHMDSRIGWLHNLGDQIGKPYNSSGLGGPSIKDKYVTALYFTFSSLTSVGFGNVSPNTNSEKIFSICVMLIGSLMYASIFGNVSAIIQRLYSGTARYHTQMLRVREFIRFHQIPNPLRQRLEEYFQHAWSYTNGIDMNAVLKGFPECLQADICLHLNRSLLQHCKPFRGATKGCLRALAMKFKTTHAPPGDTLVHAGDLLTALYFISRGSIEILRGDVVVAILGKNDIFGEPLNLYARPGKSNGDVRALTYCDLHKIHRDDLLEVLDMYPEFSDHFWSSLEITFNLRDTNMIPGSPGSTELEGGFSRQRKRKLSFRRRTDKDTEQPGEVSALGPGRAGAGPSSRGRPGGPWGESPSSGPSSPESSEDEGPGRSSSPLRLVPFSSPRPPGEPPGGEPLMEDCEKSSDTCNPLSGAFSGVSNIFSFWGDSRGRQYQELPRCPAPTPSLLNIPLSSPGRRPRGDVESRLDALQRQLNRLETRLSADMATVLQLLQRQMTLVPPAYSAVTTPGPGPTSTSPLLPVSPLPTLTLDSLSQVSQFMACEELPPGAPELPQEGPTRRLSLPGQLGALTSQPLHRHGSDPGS

Row | SMILES | hERG current change (%, negative = inhibition) at 1uM [%]
1 | Cc1cc(-c2csc(NC(=O)C3=COCCO3)n2)c(C)n1C | 7.63
2 | COc1ccc(OC)c2sc(N(CCN(C)C)C(=O)c3ccc4ccccc4c3)nc12.Cl | 17
3 | COc1ccc(/C=C/c2cc(=O)c3cc(Cl)ccc3o2)cc1 | 9.88
4 | O=C(NCCCl)Nc1cccc(Br)c1 | 10.3
5 | C[C@@H](C(=O)Nc1cccc(S(=O)(=O)N2CCOCC2)c1)N1C(=O)C2CC=CCC2C1=O (stereo partly shown) | 17.4
6 | COc1ccc(OC)c(NC(=O)Nc2ccc3[nH]ccc3c2)c1 | 10.4
7 | N#Cc1cnn2c3c(cnc12)C(=O)N1CCc2ccccc2C1C3 (stereo not shown) | -2.75
8 | CCCC(=O)NC(NC(=S)Nc1c(C)n(C)n(-c2ccccc2)c1=O)C(Cl)(Cl)Cl (stereo not shown) | 4.48
9 | CCOc1ccc(NC(=O)COC(=O)COc2cccc3c2OC(C)(C)C3)cc1 | 13.4
10 | CN1CCN(C(=O)N2c3ccccc3CCc3ccccc32)CC1 | 9.15
11 | CCn1c(CC(=O)Nc2ccc(C)cc2)nnc1SCC(=O)NCc1ccccc1 | 13.3
12 | Cc1nnc(SCC(=O)NC2CCCc3c2cnn3-c2ccccc2F)o1 (stereo not shown) | 12.9
13 | Cc1cccc(N(C(=O)c2csnn2)C(C(=O)NC(C)(C)C)c2ccncc2)c1 (stereo not shown) | 4.27
14 | FC(F)(F)c1cccc(NC(=S)NNC(=S)NCc2ccccc2)c1 | 17.6
15 | CCn1cc(C(=O)OCc2ccccc2)c(=O)c2ccc(C)nc21 | 5.18
16 | CCOC(=O)N1CCN(C(=S)NC2CCCCC2)CC1 | 2.46
17 | Cc1ccc(C(=O)c2cc([N+](=O)[O-])ccc2N2CC(C)OC(C)C2)cc1 (stereo not shown) | 3.53
18 | Cc1ccccc1C(=O)N1CCN(c2ccc(NC(=O)c3ccccc3[N+](=O)[O-])cc2)CC1 | 7.34
19 | CCOC(=O)N1CCN(C(=O)c2cccc(OC)c2O)CC1 | -4.58
20 | CN(c1ccc(C(=O)Nc2cccnc2)cc1)S(=O)(=O)c1ccccc1 | 7.86
21 | O=C(CN1CCOCC1)Nc1ccc2c(c1)CCC2 | 13.1
22 | Cc1ccccc1-c1nc2cc(N)ccc2o1 | -5.63
23 | CCOc1ccccc1CN1CCN(Cc2nc3c(s2)CCCC3)CC1CCO (stereo not shown) | -26.6
24 | O=C(CN(C(=O)CNC(=O)c1ccco1)c1ccccc1F)NC1CCCCC1 | 17
25 | CCOC(=O)N1CCN(C(=O)/C(=C/c2ccc(Br)cc2)NC(=O)c2ccc(OC)cc2)CC1 | -81.5
